Results taken from the supplement of paper PMC10338343.
± gives the standard deviation. The list shows a part of the results, in another mix than the full data.

Tested on: MIWI (PIWIL1) piRISC loaded with L1MC piRNA (30 nt)
Experiment: pre-steady-state target cleavage rate (min^-1); MIWI and MILI are mouse PIWI proteins and EfPiwi is from a freshwater sponge; tags in brackets are library labels; higher = faster piRNA-guided slicing of the target
Details: guide: L1MC piRNA 5'p-UAACUAAAUACUAUGCAAGCUGUAGGUCCU
Summary of the method: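 At 33 °C in HEPES–potassium acetate buffer, a transcribed, DNA-blocked target RNA library […] was exposed for 0–8 or 0–960 min to 1 nM active affinity-purified piRISC carrying a single synthetic guide, with or without 500 nM GTSF1 partner protein. Uncleaved targets were sequenced and normalised to depth and to weakly complementary targets. With three trials pooled and k3 capped at 0.0001 min^-1, a burst-and-steady-state fit produced the pre-steady-state cleavage rate.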

[1] = auxiliary factor: 500 nM mouse GTSF1
[2] = auxiliary factor: none (no GTSF1)
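Further: 1 nM active piRISC with 0.1 nM target library at 33 °C single turnover.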

| Sequence | pre-steady-state target cleavage rate [1] | pre-steady-state target cleavage rate [2] |
| --- | --- | --- |
| UCGACCUUCAGCUUGCAUAGUAUAUAGUUA | 0.901 ± 0.049 | 0.0272 ± 0.007 |
| UCCUGGAACAGCUAGCAUAGUAUUUACUUA | 0.217 ± 0.027 | 0.0126 ± 0.0027 |
| UCCACCUACAGCGUGCAUAGUAUUUAGUUA | 1.06 ± 0.04 | 0.0325 ± 0.0056 |
| UCCUGGAUGUGCUUGCAUAGUAUAUUAGUUA | 0.0878 ± 0.0097 | 0.00721 ± 0.0034 |
| UCCUCGAACAGCUUGCAUAGUAUUUAGUAA | 0.982 ± 0.042 | 0.0424 ± 0.008 |
| UCCUGGAUCAGCUUGCAUAGUAUUUUGAAA | 0.364 ± 0.054 | 0.00971 ± 0.003 |
| AGGACCUACAGCUUGUCAUAGUAUUUAGUUA | 0.747 ± 0.074 | 0.00894 ± 0.0041 |
| UCCUGGAUGAGCUUGGAUAGUAUUUUGUUA | 0.531 ± 0.062 | 0.0196 ± 0.0065 |
| UCGACCUUCAGCUUGCAUAGUAUUAAGUUA | 0.8 ± 0.044 | 0.0251 ± 0.0052 |
| AGGUCCUACAGCUUGCAUAGUAUUUACAAA | 0.428 ± 0.076 | 0.00841 ± 0.003 |
| UCCUGGAUCAGCUUGCAUAGUUUUUACUUA | 0.0546 ± 0.0099 | 0.00917 ± 0.0026 |
| UCCUGGAUGAGCUUGCAUACUAUUUAGUAA | 0.0528 ± 0.012 | 0.018 ± 0.0049 |
| UCCUCCAACAGCUUGCAUAGUAUUUACUUA | 0.267 ± 0.026 | 0.0243 ± 0.0038 |
| UGGACCUACACCUUGCAUAGAAUUUAGUUA | 0.459 ± 0.069 | 0.0186 ± 0.0048 |
| UCGACCUACAGCUUGCAUAGUAUAUAGUAA | 0.463 ± 0.029 | 0.0147 ± 0.0039 |
| AGGACCUACACCUUCCAUAGUAUUUAGUUA | 0.0641 ± 0.017 | 0.00484 ± 0.002 |
| AGGACCUACAGCUUGCUAUGUAUUUAGUUA | 0.189 ± 0.022 | 0.00595 ± 0.0018 |
| UCCUGGUACAGCUUGCAAAGUAUUUAGAUA | 0.249 ± 0.034 | 0.0146 ± 0.004 |
| UCCUGGAUGAGCUUGCAUUGUAUUUUGUUA | 0.149 ± 0.016 | 0.0127 ± 0.0043 |
| UGGUCCUACAGCUUGCAUUGUAUUUAGUUA | 0.778 ± 0.022 | 0.0435 ± 0.0083 |

| Sequence | pre-steady-state target cleavage rate [1] | pre-steady-state target cleavage rate [2] |
| --- | --- | --- |
| UCCUGGAACAGCAUGCAUAGUAUUUUGUUA | 0.499 ± 0.039 | 0.014 ± 0.0043 |
| UCCUGGAUGUGCUUCGCAUAGUAUUUAGUUA | 0.147 ± 0.022 | 0.00765 ± 0.0033 |
| UCCUCGUACUGCUUGCAUAGUAUUUAGUUA | 1.18 ± 0.057 | 0.0522 ± 0.0088 |
| UCCUCCUACAGCUUGCAUAGUCUUUAGUUA | 0.543 ± 0.029 | 0.0397 ± 0.0078 |
| AGGACCUACAGCUUGCAUAGUAUUUAGUUA [g2:g30:cont:t1A] | 1.35 ± 0.057 | 0.0941 ± 0.015 |
| UCCUGCUACAGCUUGCAUAGUAUUUAUGUUA | 0.497 ± 0.036 | 0.0171 ± 0.003 |
| UCCACCUACAGAUUGCAUAGUAUUUAGUUA | 1.07 ± 0.15 | 0.0219 ± 0.0041 |
| UCCUGCUACUGCUUGCAUAGUAUUAAGUUA | 0.365 ± 0.031 | 0.0175 ± 0.0026 |
| UCCUGGAACACUUGCAUAGUAUUUAGUUA | 0.596 ± 0.032 | 0.0132 ± 0.0044 |
| UCCAGCCUACAGCUUGCAUAGUAUUUAGUUA | 1.32 ± 0.062 | 0.0623 ± 0.0092 |
| UCGACCUAGAGCUUCCAUAGUAUUUAGUUA | 0.0771 ± 0.023 | 0.00291 ± 0.002 |
| UCCUCCUACUGCUUGCAUAGUUUUUAGUUA | 0.337 ± 0.016 | 0.0191 ± 0.0029 |
| AGGAGGAACAGCUUGCAUAGUAUUUACAAA | 0.442 ± 0.073 | 0.00664 ± 0.002 |
| UCCUGGAUGUCCUUGCAUAGUAUUUUAGUUA | 0.0149 ± 0.0046 | 0.00474 ± 0.0022 |
| UCGACCUACAGCUUGGAUACUAUUUAGUUA | 0.357 ± 0.032 | 0.0217 ± 0.0043 |
| UCCUGGAUGAGCUUGAAUAGUAUUUAGUUA | 0.944 ± 0.045 | 0.0233 ± 0.007 |
| UCCUGGAUGUCCUUGCAUAGUAGUUAGUUA | 0.00603 ± 0.0046 | 0.00268 ± 0.0023 |
| AGGACCUACAGCUUGCAUAGAAUUUACAAA | 0.393 ± 0.061 | 0.00381 ± 0.0032 |
| UCCACCUCACAGCUUGCAUAGUAUUUAGUUA | 1.06 ± 0.051 | 0.0701 ± 0.012 |
| UCCUCCUACAGCUUGCAUAGUAUUUUGAAA | 0.394 ± 0.046 | 0.00421 ± 0.0032 |

| Sequence | pre-steady-state target cleavage rate [1] | pre-steady-state target cleavage rate [2] |
| --- | --- | --- |
| AGGACCUACAGCUUGCAUUGUAUUUACUUA | 0.372 ± 0.052 | 0.0183 ± 0.0044 |
| UCGACCUACAGCUUGCAUAGUACUUAGUUA | 1.03 ± 0.037 | 0.062 ± 0.01 |
| UCCUCCUACAGGUUGCAUAGUAUAUAGUUA | 0.58 ± 0.049 | 0.0122 ± 0.0033 |
| UCCUGGAUGUGCUUGCAUAGUAUUUAGUA | 0.155 ± 0.019 | 0.0106 ± 0.0033 |
| UCGACCUUCAGCUUGCAUAGUAUUUACUUA | 0.372 ± 0.035 | 0.0338 ± 0.006 |
| UGGACCUUCAGCUUGCUUAGUAUUUAGUUA | 1.49 ± 0.09 | 0.0441 ± 0.011 |
| UCCUGGAUCAGCUUGCAUAGUAUAUAGUUA | 0.78 ± 0.043 | 0.0244 ± 0.0059 |
| UCCACGAUCAGCUUGCAUAGUAUUUAGAAA | 0.444 ± 0.044 | 0.00814 ± 0.0028 |
| UGGUCCUACAGCUUGCAUAGUAUUUACUUA | 0.339 ± 0.033 | 0.0376 ± 0.0072 |
| UCCUCCUACAGGUUGCAUAGUAUUUAGAAA | 0.313 ± 0.036 | 0.0024 ± 0.0023 |
| UCCUGCUAGCAGCUUGCAUAGUAUUUAGUUA | 1.17 ± 0.079 | 0.0552 ± 0.0095 |
| UCCUGGAUGUGCUUGCAUUGUAUUUACUUA | 0.0266 ± 0.0072 | 0.0102 ± 0.0032 |
| UCCUGGUAGAGCUUGCAUAGUAUUUAGUAA | 0.689 ± 0.059 | 0.0261 ± 0.0079 |
| AGGACCUACUGCUUGCAUAGUAUAUAGUUA | 0.687 ± 0.051 | 0.0381 ± 0.0072 |
| UCCACCUAGUGCUUGCAUAGUAUUUAGUAA | 0.344 ± 0.052 | 0.006 ± 0.0015 |
| UCCUCCUUCAGCUUGCAUAGUAUUUAGAAA | 0.316 ± 0.041 | 0.00389 ± 0.002 |
| UCCUGCUACAGCUAGCAUAGUAAUUAGUUA | 0.707 ± 0.061 | 0.0049 ± 0.0018 |
| AGGACCUAGAGCUUGCAUAGUAUUUAGAUA | 0.358 ± 0.04 | 0.03 ± 0.0081 |
| UCGACCUACUCGUUGCAUAGUAUUUAGUAA | 0.522 ± 0.032 | 0.00974 ± 0.0021 |
| UCCUCCUACAGCUUGCAUAGUAUUUAGUUUA | 1.1 ± 0.033 | 0.0676 ± 0.013 |
